# From the supplement of paper PMC7826260
# This is one part of the list. Cleavage of a single-stranded DNA pool by Rep nickase domains was read by sequencing (1 h at 37 °C, 3 µM enzyme); the outer parts of the 90-letter strands are left off. Values are log2 of uncut reads against the no-enzyme pool; more negative means more cut, near 0 not cut, and no call is made. The scaling is to total reads; where an enzyme cuts many sequences, the uncut ones exceed 0.
# Experiments:
# Test in all cases: uncleaved DNA left, log2 of reads against the no-enzyme library (log2 ratio); higher = less cleavage (more negative = more Rep cleavage of the k-mer); sequences stand for … in CTCGTCCG…ACCGGAGA
# [1] = system: T1, Rep nickase domain of Muscovy duck circovirus
# T1 sequence (residues 1-111 of Rep, tag left off): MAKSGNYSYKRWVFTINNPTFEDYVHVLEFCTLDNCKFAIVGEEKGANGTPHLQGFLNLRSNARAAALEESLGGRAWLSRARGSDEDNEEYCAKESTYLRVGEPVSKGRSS
# Protocol: (§1)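 A pool of 90-nt single-stranded DNAs with seven random bases just before the constant AC of the nick site (name = the seven bases) was cut by 3 µM recombinant His6-SUMO-tagged Rep nickase domain (300 nM DNA, 50 mM HEPES pH 8.0, 50 mM NaCl, 1 mM MnCl2, 1 h, 37 °C, three replicates). Uncut DNA was amplified and sequenced.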
# [2] = system: T2, Rep nickase domain of banana bunchy top virus
# T2 sequence (residues 1-94 of Rep, tag left off): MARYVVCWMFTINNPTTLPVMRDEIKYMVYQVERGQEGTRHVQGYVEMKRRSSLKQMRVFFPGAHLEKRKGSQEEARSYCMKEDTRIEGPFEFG
# Protocol: as §1
# [3] = system: T3, Rep nickase domain of cabbage leaf curl virus
# T3 sequence (residues 1-116 of Rep, tag left off): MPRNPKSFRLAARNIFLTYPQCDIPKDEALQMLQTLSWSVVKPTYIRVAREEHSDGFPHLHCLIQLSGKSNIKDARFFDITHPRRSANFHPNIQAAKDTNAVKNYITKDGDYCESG
# Protocol: as §1
# [4] = system: T4, Rep nickase domain of chickpea chlorotic dwarf virus
# T4 sequence (residues 1-124 of Rep, tag left off): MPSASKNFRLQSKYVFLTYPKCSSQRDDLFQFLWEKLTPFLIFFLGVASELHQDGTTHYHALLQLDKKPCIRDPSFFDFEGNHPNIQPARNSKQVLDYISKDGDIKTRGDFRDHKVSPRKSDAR
# Protocol: as §1
# [5] = system: T5, Rep nickase domain of faba bean necrotic yellows virus
# T5 sequence (residues 1-98 of Rep, tag left off): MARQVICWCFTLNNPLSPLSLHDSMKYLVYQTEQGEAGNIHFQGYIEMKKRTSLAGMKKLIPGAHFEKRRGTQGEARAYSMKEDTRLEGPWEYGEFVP
# Protocol: as §1
# [6] = system: T6, Rep nickase domain of maize striate mosaic virus
# T6 sequence (residues 1-117 of Rep, tag left off): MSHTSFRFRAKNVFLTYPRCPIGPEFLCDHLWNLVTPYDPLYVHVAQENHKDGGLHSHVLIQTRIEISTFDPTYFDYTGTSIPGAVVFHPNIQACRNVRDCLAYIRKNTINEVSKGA
# Protocol: as §1
# [7] = system: T7, Rep nickase domain of porcine circovirus 2
# T7 sequence (residues 2-116 of Rep, tag left off): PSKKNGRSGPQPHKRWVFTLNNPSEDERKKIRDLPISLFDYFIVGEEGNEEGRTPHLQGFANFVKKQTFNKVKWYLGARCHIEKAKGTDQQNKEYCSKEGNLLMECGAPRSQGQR
# Protocol: as §1
# [8] = system: T8, Rep nickase domain of tomato golden mosaic virus
# T8 sequence (residues 1-124 of Rep, tag left off): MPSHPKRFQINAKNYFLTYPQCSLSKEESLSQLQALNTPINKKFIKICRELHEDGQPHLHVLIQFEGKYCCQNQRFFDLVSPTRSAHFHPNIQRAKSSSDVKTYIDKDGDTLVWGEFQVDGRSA
# Protocol: as §1
# [9] = system: T9, Rep nickase domain of tomato yellow leaf curl virus
# T9 sequence (residues 1-136 of Rep, tag left off): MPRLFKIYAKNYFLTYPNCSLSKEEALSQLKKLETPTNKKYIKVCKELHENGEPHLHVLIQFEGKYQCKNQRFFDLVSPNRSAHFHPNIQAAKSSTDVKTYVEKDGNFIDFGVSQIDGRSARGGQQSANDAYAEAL
# Protocol: as §1
# [10] = system: T10, Rep nickase domain of wheat dwarf virus
# T10 sequence (residues 1-137 of Rep, tag left off): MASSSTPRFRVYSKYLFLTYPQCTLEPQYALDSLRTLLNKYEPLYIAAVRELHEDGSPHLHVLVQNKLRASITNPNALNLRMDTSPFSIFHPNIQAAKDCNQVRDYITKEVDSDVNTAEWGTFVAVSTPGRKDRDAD
# Protocol: as §1
Sequence,uncleaved DNA left (log2) [1],uncleaved DNA left (log2) [2],uncleaved DNA left (log2) [3],uncleaved DNA left (log2) [4],uncleaved DNA left (log2) [5],uncleaved DNA left (log2) [6],uncleaved DNA left (log2) [7],uncleaved DNA left (log2) [8],uncleaved DNA left (log2) [9],uncleaved DNA left (log2) [10]
ACATCCA,-0.051,0.0851,-0.0742,-0.961,0.0513,-0.314,0.0213,0.0526,0.0205,-0.015
ACTGAAG,0.0873,0.158,-0.846,-0.303,-0.0316,-1.17,0.14,0.0914,0.146,-0.0117
GAAGGCC,0.0202,0.0653,0.364,0.797,0.00268,0.546,0.0112,-0.000366,0.127,0.139
ACTAGGT,0.0767,0.0437,0.344,0.562,0.0731,0.0944,-0.11,0.149,0.0686,0.0483
CCACCGC,-0.0314,-0.0644,-0.509,-0.861,-0.149,-0.756,-0.00371,-0.144,-0.192,-0.228
TATCCTT,-0.0664,0.00878,-0.81,-2.88,0.0853,-0.189,-1.53,-0.0705,-0.0583,-0.155
ACGAGCC,0.0601,0.0719,-0.192,0.153,0.0339,-0.681,-0.233,0.0865,0.0071,0.0192
GATAAGG,0.0349,0.133,0.246,1.09,-0.0211,1.11,0.104,0.0921,0.0438,-0.00331
AGATGCC,0.0898,0.142,-0.0625,0.296,0.0397,-0.572,0.1,-0.00213,0.078,0.0668
TTCTTTG,-0.246,-0.25,-0.517,-0.938,-0.0954,-1.2,-0.0957,-0.255,-0.0613,-0.112
GGTAGAC,-0.00896,0.131,0.826,1.98,0.00841,2.17,0.205,0.00641,0.0367,0.145
GTGTATC,0.0336,0.153,0.357,0.915,0.00576,1.85,0.143,0.0384,0.162,0.14
AACAATT,-0.122,-0.425,-1.23,-3.32,-0.0776,-0.899,-3.77,-0.12,-0.132,-0.19
AAGCTGC,0.0779,-0.0395,0.383,1.6,-0.0144,1.64,0.189,0.0577,-0.00443,0.168
AGCAACT,0.0591,0.0892,0.159,0.174,0.0606,1.51,-0.101,0.0646,0.00158,0.0589
GCTCTTC,-0.0589,-0.0586,0.18,0.336,-0.0536,0.164,0.0115,-0.0785,-0.0869,-0.0294
ATTTGCC,-0.00232,-0.0425,-0.667,-0.481,-0.0516,-1.04,0.113,-0.107,0.0258,-0.177
CACCCCG,-0.0341,0.00452,-0.751,-0.0378,0.0518,-0.836,-0.471,-0.0321,-0.0872,-0.146
AATATAG,-0.0285,-0.0826,-0.857,-0.456,-0.00129,-1.14,0.154,0.027,0.0302,-0.0194
CAATCGT,-0.247,0.0931,-3.4,-2.9,0.101,-2.4,-2.12,-1.75,0.067,-1.72

Sequence,uncleaved DNA left (log2) [1],uncleaved DNA left (log2) [2],uncleaved DNA left (log2) [3],uncleaved DNA left (log2) [4],uncleaved DNA left (log2) [5],uncleaved DNA left (log2) [6],uncleaved DNA left (log2) [7],uncleaved DNA left (log2) [8],uncleaved DNA left (log2) [9],uncleaved DNA left (log2) [10]
GAGGACT,-0.0979,0.104,0.833,1.97,-0.0699,2.21,0.146,0.109,0.0638,0.211
AGGTACG,-0.0246,0.00693,-0.869,-0.601,-0.0393,-0.977,0.193,-0.0754,-0.0855,-0.117
AGAGGGG,0.14,0.151,0.508,0.941,0.178,0.826,0.394,0.188,0.0429,0.212
GAGCAGG,-0.00832,0.0733,-0.000498,0.586,-0.045,0.882,0.159,0.193,-0.0245,-0.0804
TCCACAT,0.088,0.122,0.404,0.0871,0.107,0.484,0.124,-0.0647,0.183,0.232
ATTGGTG,0.0126,0.0514,-0.539,-0.474,0.0821,-0.961,0.17,-0.0217,0.0563,-0.0837
GGAAATA,0.0431,0.105,0.758,1.75,0.0327,2.05,0.221,0.00339,0.0898,0.162
TGTGCGA,-0.118,-0.0905,-0.811,-0.0462,-0.0258,-0.822,0.0323,-0.0799,0.0317,-0.0875
TTGTCCG,0.0163,-0.0584,-0.812,-0.0186,-0.0661,-1.06,-0.0334,-0.151,-0.0877,-0.247
ACACGAA,-0.0974,-0.0336,-0.544,-0.412,-0.057,-1.06,0.0616,0.1,-0.0689,-0.109
CGAATGC,-0.127,-0.124,-0.105,0.473,0.00104,0.843,0.00766,-0.163,-0.0156,0.07
AACCTCT,-0.103,-0.151,-0.507,-2.98,-0.2,-0.63,-1.63,-0.157,-0.142,-0.246
CTTCCGG,0.0114,0.0698,0.447,1.37,-0.0692,1.58,0.1,0.0816,0.00272,-0.0207
CAACGAT,0.015,-0.028,-0.187,-1.39,-0.00736,0.266,-0.0136,0.037,-0.265,-0.212
GTTTACC,-0.0697,-0.00255,0.369,1.07,-0.0267,1.72,-0.0905,0.0866,-0.057,-0.0254
ATAGACA,0.0443,0.0913,0.206,-0.914,0.212,0.0947,0.111,0.076,0.0108,0.13
GTGAGGA,0.13,0.117,0.33,0.826,0.0886,0.689,0.126,0.11,0.0577,0.123
CGACAAG,0.0846,0.204,-0.127,0.363,0.0196,0.21,0.0562,0.102,0.046,0.119
CTAGCTT,-0.0527,-0.0596,-0.138,-1.61,-0.127,-0.141,-0.28,-0.131,-0.159,-0.0381
TGAGTTC,0.0174,-0.0594,0.178,-0.203,-0.0881,0.233,-0.0623,-0.0731,-0.0674,-0.127

Sequence,uncleaved DNA left (log2) [1],uncleaved DNA left (log2) [2],uncleaved DNA left (log2) [3],uncleaved DNA left (log2) [4],uncleaved DNA left (log2) [5],uncleaved DNA left (log2) [6],uncleaved DNA left (log2) [7],uncleaved DNA left (log2) [8],uncleaved DNA left (log2) [9],uncleaved DNA left (log2) [10]
AGCCGAA,-0.16,-0.156,-0.0141,0.219,-0.145,-0.00552,-0.412,-0.219,-0.193,-0.0703
AGCTGGG,0.0826,0.0528,-0.368,-0.222,0.0358,-0.48,0.0922,0.0374,0.00172,-0.00652
ACACTTC,-0.0015,-0.0167,-0.22,-0.495,-0.0059,-0.966,0.127,0.0143,-0.053,-0.137
AATCACT,-0.474,-0.0142,-0.829,-3.09,0.113,-0.998,-3.32,-0.0856,-0.0413,-0.0571
GATAACA,0.0126,0.178,0.0399,-1.09,0.028,0.73,0.125,-0.041,0.00429,0.05
TTCATCC,0.0275,-0.0275,0.174,-0.0644,-0.0867,-0.156,-0.0712,-0.159,0.0422,-0.00655
TCCGCGA,-0.0861,-0.101,-0.691,-0.265,-0.0469,-0.636,0.0328,-0.17,-0.132,-0.245
CTACATC,0.14,0.27,0.038,-1.24,0.0294,-0.486,0.24,0.171,0.0712,0.193
GCGGCCA,0.0489,0.0266,0.451,0.937,-0.169,1.27,0.0156,-0.0615,-0.0155,0.0808
ATGGGAG,0.0837,0.0301,-0.196,0.456,0.0165,-0.313,0.261,0.00828,0.0135,-0.0558
GAGACAG,0.154,0.257,0.815,2.14,0.104,2.22,0.258,0.12,0.158,0.244
ACTTCCG,0.00185,0.0758,-0.845,0.282,-0.0117,-0.651,0.13,0.0123,0.0157,-0.128
TGACCCT,-0.0613,-0.0829,0.644,1.19,-0.0461,1.82,-0.115,-0.186,0.0386,0.0308
TGGGTAG,-0.0103,0.029,0.0213,0.261,0.151,-0.164,0.315,-0.0038,0.137,0.094
TATCTCA,-0.061,0.052,-0.171,-1.98,-0.0715,-0.137,-0.145,-0.0926,0.0662,0.0121
TCATTGA,0.041,-0.0124,-0.559,-0.617,-0.00574,-1.1,0.137,-0.0398,0.0806,-0.0289
ACATGGG,0.134,0.0346,-0.7,0.123,0.0307,-0.681,0.195,0.0717,0.0438,-0.128
TGAGGAC,-0.107,0.0696,0.397,1.32,-0.0531,1.4,0.106,-0.00375,0.0118,0.0526
